This is one part of the list.
Test system: PfSIP2 AP2 domain 1 (GST-tagged)
Test: gcPBM binding intensity (ln(normalized median fluorescence intensity)); higher = stronger DNA binding
How it was run: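 Plasmodium falciparum DNA-binding domains carrying a GST tag were expressed in E. coli and applied for 1 h, at about 25 μg on average, to an Agilent 4 × 180k array. The array held primer-extended double-stranded 36-bp intergenic genomic probes together with negative controls, and binding took place in 1× PBS with 1% milk, 0.2 mg/ml BSA, 0.5% salmon testes DNA and 0.03% Triton X-100. An Alexa488 anti-GST antibody detected bound protein, and the array was scanned at 488 nm. Binding intensity is taken as the highest Masliner-normalised natural-log median intensity across replicate spots of either probe orientation.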

Sequence | gcPBM binding intensity (ln)
ATAACCTAATAATACACACACATGAATATATAGAAT [CACACA_site963] | 7.09
TTTAAAATTTTTTTTTTTTTTTTTTTTTTTTTTTAT [TGCATGCA_negctrl_site213] | 6.89
ATATAAATATGTTCTGCACACAAATAAGTGTTTGAA [CACACA_site9291] | 7.13
TAATATATATTATTATGTACATATATTGATTCCTTG [XGTACX_site6830] | 7.14
TATTTATTAATATGTACACACATCAACCATATTAAC [CACACA_site7001] | 7.22
CCAAAATACATTAAACGTACATGTCCTAATAAGATA [XGTACX_site21] | 6.96
TTCTTATATATATACACACACAAAATATCTACAATG [CACACA_site736] | 7.2
TTGTTTTTATAAATATTATTACAATGAAAAAAAAAA [TGCATGCA_negctrl_site185] | 6.98
AATTATTCTATATATTGTACATGTTTGTTTTTTTTT [XGTACX_site3130] | 6.93
ATATATAAATATATATGTACACACATATACATGTTG [XGTACX_site6653] | 7.16
TGTTTAATCACATGTTTGCACTTTCCTTTTGTAAAT [GTGCAC_site9893] | 8.09
TCTTAAAATCGGAAATGAAATAAAGTTTACAATATG [TGCATGCA_negctrl_site553] | 6.56
TGATTCTGTCATGGTGCACACCAGAACCATTATAAA [CACACA_site1965] | 11.9
TACCTATATACATACACACACATATAACCAATGTAG [CACACA_site7096] | 7.23
AGAAGATTAAAAATTGCACACAAAAATATATTTTCT [CACACA_site8359] | 7.04
TAATAAATAAAAACATGTACATATATACATATATGT [XGTACX_site485] | 7.1
GATATATAGGTATTTACACACAATGTGAGATCTATA [CACACA_site7575] | 6.77
AAAGACTTTTTATGAGCACACACATATATTATGGAG [CACACA_site8254] | 6.99
TTTCTATAATATATATGTACATATATAATATGTCGT [XGTACX_site3676] | 7.22

Sequence | gcPBM binding intensity (ln)
AGATAAAATAAATACACACACATAAATACGTACAAA [CACACA_site4739] | 7.39
TGATAATAAGCATACACACACACACTAAAAAAAAAA [CACACA_site6478] | 7.06
ATGATTATACAAAATATACACACGTGGACACAAATA [CACACA_site8304] | 7.18
ATTAAAATAGAAAAAAAAAAAAAAAAAAAAAAAAAA [CACACA_negctrl_site1117] | 7.1
GATGATACACAGGTGTTGCACTTAAATGCAGTTCTT [GTGCAC_site9627] | 9.71
TATGGGGAACTATAATGTACGTATTCCTCATATATA [XGTACX_site338] | 6.99
TTTTCAAAATGTTGTACACACAAAAAAAAAAAAAAA [CACACA_site1550] | 7.56
TTGATATACTATGACACATGCAAATAAAACATTATA [TGCATGCA_site535] | 7.07
TAATCATTTTTAAATTGTACAATTTATATAATAAGT [XGTACX_site6081] | 7.1
TAAATTTTGTTTAGCACACACACATACATACATACA [CACACA_site3155] | 7.82
TTGTATTGTATATGCACACATAGAACACTTTTTTTT [CACACA_site4133] | 7.19
TATTTTTTAAGTGAACATTTGTTATTATATTCTTAT [GTGCAC_negctrl_site172] | 6.86
TATATCTGTATCATTACACACATGTATACTTATTTG [CACACA_site6134] | 6.93
TTTTTTTATAAATTCACACAAAATATAATATTAAAA [CACACA_site4766] | 6.82
CTATATATTTTTCATTGTACACAAATTAAAGAAAAA [XGTACX_site8385] | 7.44
AATGTCATCATATTCATATATATTTATTTCTTTTTG [GTGCAC_negctrl_site500] | 6.81
ATATAATCCTTTCAAACACACAAAATATAATTAATA [CACACA_site1829] | 7.08
ATGATGGAATATTCTACACACAATTAATAAACAAAC [CACACA_site1045] | 7.32
GGTTATAACCCACATGCACACGTAAATAAATATTAT [CACACA_site5992] | 7.4

Sequence | gcPBM binding intensity (ln)
ATAAATAATAAGGTTACAACAAACACACAAAGGAAT [XGTACX_negctrl_site611] | 7.33
TAAAAAAAAAAGTATACACACTTCTTAATGTCAACA [CACACA_site4818] | 6.71
TGTCCAATTTATTGTGCACACCTCAAAAGTGGGTAA [CACACA_site3826] | 9.41
TATAAATAGATATATACACACATTTTTAATGATAAA [CACACA_site7299] | 6.6
AAAAAAAAAAGACACACACACAATAGTATATAAATC [CACACA_site6579] | 6.83
TTTTTATTTTTTCAAGTGCATATTTTTGGCTTCTTA | 7.93
TATATATATATATTACGTTTTAAATATACTAATCTT [CACACA_negctrl_site32] | 8.98
CTTTTTCCTTTATATTGTACATAATTAAAGATAATA [XGTACX_site7014] | 7.37
AAAAAAAAAAAAAATACACACATATATATATATATA [CACACA_site85] | 9.54
TAAATACAGACATATACACACATATATATATATATA [CACACA_site4382] | 9.36
ATGTATATGTTTTGTTGTACAAGTATTTTATATCTT [XGTACX_site3588] | 7.21
TAAAGATGTATTTATTCACACATCTCATATAATGAA [CACACA_site5229] | 6.76
TTATGTATCCTTATAAGAAAAAAAAAAAAATTCTCT [CACACA_negctrl_site1183] | 6.77
AATAAAAATATAGGCACACATATTAAAATGAACTTA [CACACA_site830] | 6.78
TGAATTTAGATATATACACACAAAAGTAAATACAAT [CACACA_site5548] | 7.03
TTTAAATATATTCAATCACACACATTCGTTTTTTTT [CACACA_site7962] | 6.9
AATATATACATACATACATGCATACATATATATAAC [TGCATGCA_site371] | 7.28
AGTAGTCTGGAGAAAAGTACACAGTATCTGGTAACC [XGTACX_site2035] | 7.17

From the supplement of paper PMC11417369
